The list shows a part of the results, in another mix than the full data. The list includes weakly bound sequences.
Legend:
Experiment in all cases: protein-binding microarray (PBM)
Conditions in all cases: PBM: ~300 nM protein, 6 mM HEPES pH 7.8, 80 mM KCl, 0.5 mM EDTA, 0.5 mM EGTA, 6% glycerol, 35 ng/ul poly-dIdC, 1% milk, 1 h, room temperature; Ap Aiptasia and Nv Nematostella (sea anemones) / Co Capsaspora / Aq Amphimedon (sponge) / Dm Drosophila / Hu human; RHD is the Rel homology domain; high values mean tight binding; most listed sequences are background and not binding sites; double strand, one strand shown
GST-Ap-NF-kB RHD = target: T1, GST-Ap-NF-kB RHD (UniProt A0A913YAJ5)
T1 sequence: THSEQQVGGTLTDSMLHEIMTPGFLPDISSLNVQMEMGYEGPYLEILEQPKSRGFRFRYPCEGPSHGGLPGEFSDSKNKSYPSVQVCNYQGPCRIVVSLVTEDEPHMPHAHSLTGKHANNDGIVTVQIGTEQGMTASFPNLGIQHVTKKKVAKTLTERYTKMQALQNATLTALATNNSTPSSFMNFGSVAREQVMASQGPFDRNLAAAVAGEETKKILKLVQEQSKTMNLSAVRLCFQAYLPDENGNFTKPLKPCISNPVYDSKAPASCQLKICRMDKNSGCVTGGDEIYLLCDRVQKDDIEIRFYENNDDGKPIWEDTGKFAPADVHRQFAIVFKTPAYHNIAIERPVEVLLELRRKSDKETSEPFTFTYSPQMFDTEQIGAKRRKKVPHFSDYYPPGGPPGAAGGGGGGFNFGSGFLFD

[1] = target: T2, GST-Nv-NF-kB (Cys allele) (UniProt E5G601)
T2 sequence: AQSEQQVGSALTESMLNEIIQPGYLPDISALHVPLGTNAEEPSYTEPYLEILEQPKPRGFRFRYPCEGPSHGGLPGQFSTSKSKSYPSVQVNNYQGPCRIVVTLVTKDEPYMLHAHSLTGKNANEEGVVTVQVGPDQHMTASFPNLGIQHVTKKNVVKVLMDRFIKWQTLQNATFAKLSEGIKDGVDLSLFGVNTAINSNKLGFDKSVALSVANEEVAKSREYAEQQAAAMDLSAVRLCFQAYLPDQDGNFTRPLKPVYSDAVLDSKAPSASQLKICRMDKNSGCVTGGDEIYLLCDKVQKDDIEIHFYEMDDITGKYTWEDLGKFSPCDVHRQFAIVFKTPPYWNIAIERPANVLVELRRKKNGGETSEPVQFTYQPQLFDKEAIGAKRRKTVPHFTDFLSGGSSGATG

GST-Co-NF-kB = target: T3, GST-Co-NF-kB (UniProt F1ARL5)
T3 sequence: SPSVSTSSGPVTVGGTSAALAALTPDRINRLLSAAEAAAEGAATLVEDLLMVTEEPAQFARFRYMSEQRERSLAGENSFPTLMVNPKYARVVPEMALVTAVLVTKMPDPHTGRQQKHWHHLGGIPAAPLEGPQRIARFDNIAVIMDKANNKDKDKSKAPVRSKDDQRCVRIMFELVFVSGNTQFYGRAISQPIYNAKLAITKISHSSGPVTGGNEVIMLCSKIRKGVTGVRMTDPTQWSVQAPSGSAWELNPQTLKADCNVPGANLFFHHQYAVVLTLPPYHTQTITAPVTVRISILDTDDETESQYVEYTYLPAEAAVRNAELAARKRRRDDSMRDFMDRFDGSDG

GST-Dm-Relish = target: T4, GST-Dm-Relish (UniProt Q94527)
T4 sequence: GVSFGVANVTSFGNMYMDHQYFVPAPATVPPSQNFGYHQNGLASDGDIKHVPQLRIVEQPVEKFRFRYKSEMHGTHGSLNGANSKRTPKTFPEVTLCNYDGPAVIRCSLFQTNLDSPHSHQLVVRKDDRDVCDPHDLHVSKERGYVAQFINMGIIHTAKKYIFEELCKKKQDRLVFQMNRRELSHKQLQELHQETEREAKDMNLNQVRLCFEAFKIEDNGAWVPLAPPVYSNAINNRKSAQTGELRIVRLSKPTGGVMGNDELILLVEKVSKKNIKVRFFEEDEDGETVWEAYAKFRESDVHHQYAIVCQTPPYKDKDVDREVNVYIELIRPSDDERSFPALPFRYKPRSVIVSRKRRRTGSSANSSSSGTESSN

GST-Aq-NF-kB = target: T5, GST-Aq-NF-kB (UniProt A9Y5G7)
T5 sequence: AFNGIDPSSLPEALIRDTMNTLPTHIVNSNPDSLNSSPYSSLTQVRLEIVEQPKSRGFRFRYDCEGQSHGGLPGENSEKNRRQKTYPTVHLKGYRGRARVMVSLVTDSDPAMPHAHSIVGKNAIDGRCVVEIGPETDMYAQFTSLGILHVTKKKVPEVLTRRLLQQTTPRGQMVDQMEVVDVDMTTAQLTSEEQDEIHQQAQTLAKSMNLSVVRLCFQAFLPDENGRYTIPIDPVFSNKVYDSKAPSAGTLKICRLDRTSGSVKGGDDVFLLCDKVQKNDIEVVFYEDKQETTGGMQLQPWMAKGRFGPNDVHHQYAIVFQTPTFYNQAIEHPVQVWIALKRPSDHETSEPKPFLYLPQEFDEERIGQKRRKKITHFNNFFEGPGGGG

Sequence	binding signal (GST-Ap-NF-kB RHD) [z-score]	binding signal [1] [z-score]	binding signal (GST-Co-NF-kB) [z-score]	binding signal (GST-Dm-Relish) [z-score]	binding signal (GST-Aq-NF-kB) [z-score]
CCGATTAACATCAGCCTCTAACCTGATGTTAATCGGGTCTTGATTCGCTTGACGCTGCTG	-0.58	-0.52	-1.01	-1.14	-0.652
CCGATTAACATCAGGAATTCTACTGATGTTAATCGGGTCTTGATTCGCTTGACGCTGCTG	-0.928	-0.666	-0.464	0.594	-0.0775
CCGATTAACATCACCCTACAAGTTGATGTTAATCGGGTCTTGATTCGCTTGACGCTGCTG	0.512	-0.0481	3.08	0.318	0.932
CCGATTAACATCATCGAACGCCCTGATGTTAATCGGGTCTTGATTCGCTTGACGCTGCTG	-0.312	-0.444	-0.282	-0.717	-0.248
CCGATTAACATCAAGATTCATATTGATGTTAATCGGGTCTTGATTCGCTTGACGCTGCTG	-0.791	-0.797	-1.1	-1.04	-0.809
CCGATTAACATCAACGGACAACTTGATGTTAATCGGGTCTTGATTCGCTTGACGCTGCTG	-0.0424	0.275	0.15	-0.387	-0.117
CCGATTAACATCATCGGTGCCGTTGATGTTAATCGGGTCTTGATTCGCTTGACGCTGCTG	-0.202	0.392	-0.811	-0.455	-0.0735
CCGATTAACATCAGAGAGGTATTTGATGTTAATCGGGTCTTGATTCGCTTGACGCTGCTG	0.0479	-0.655	0.349	-0.143	-0.0797
CCGATTAACATCAACTGGCCGTCTGATGTTAATCGGGTCTTGATTCGCTTGACGCTGCTG	0.0612	-0.797	-1.21	-0.897	-0.416
CCGATTAACATCAAGAATCGCAGTGATGTTAATCGGGTCTTGATTCGCTTGACGCTGCTG	0.188	-0.405	0.0977	0.0847	-0.25
CCGATTAACATCAGCGACCCGAATGATGTTAATCGGGTCTTGATTCGCTTGACGCTGCTG	-0.319	-0.456	-0.515	0.00415	-0.316
CCGATTAACATCAACAACGGTTCTGATGTTAATCGGGTCTTGATTCGCTTGACGCTGCTG	-0.508	-0.837	-0.224	-0.794	-0.5
CCGATTAACATCATCCGTCAAATTGATGTTAATCGGGTCTTGATTCGCTTGACGCTGCTG	0.173	0.3	-0.248	-0.55	-0.523
CCGATTAACATCATAAGGACGTATGATGTTAATCGGGTCTTGATTCGCTTGACGCTGCTG	-0.567	0.309	0.474	-0.43	0.126
CCGATTAACATCATACCGGGTCGTGATGTTAATCGGGTCTTGATTCGCTTGACGCTGCTG	0.402	-0.00585	-0.539	-0.395	0.0659
CCGATTAACATCACCTTTAGGAGTGATGTTAATCGGGTCTTGATTCGCTTGACGCTGCTG	-0.452	-0.813	0.765	0.538	0.378
CCGATTAACATCACTCCTGGGTGTGATGTTAATCGGGTCTTGATTCGCTTGACGCTGCTG	-0.141	0.318	0.659	0.251	-0.209
CCGATTAACATCATTAGCCCTTCTGATGTTAATCGGGTCTTGATTCGCTTGACGCTGCTG	0.0667	-0.373	0.00102	-0.961	-0.231
CCGATTAACATCATAACTTTGGCTGATGTTAATCGGGTCTTGATTCGCTTGACGCTGCTG	-0.501	-0.906	-0.23	-0.443	-0.544
CCGATTAACATCAGAGTTAGTTTTGATGTTAATCGGGTCTTGATTCGCTTGACGCTGCTG	-0.393	0.0717	-0.567	-0.309	-0.539
CCGATTAACATCACGGCGTTTCCTGATGTTAATCGGGTCTTGATTCGCTTGACGCTGCTG	-0.117	-0.233	-0.512	0.0703	0.675
CCGATTAACATCAGGACTCTTATTGATGTTAATCGGGTCTTGATTCGCTTGACGCTGCTG	-0.166	-0.0158	0.252	-0.168	0.283
CCGATTAACATCAACATGCAGATTGATGTTAATCGGGTCTTGATTCGCTTGACGCTGCTG	-0.699	0.452	0.0298	-0.605	-0.519
CCGATTAACATCACACCGCATACTGATGTTAATCGGGTCTTGATTCGCTTGACGCTGCTG	0.0927	0.309	0.953	0.318	-0.231
CCGATTAACATCACACGAGGCTTTGATGTTAATCGGGTCTTGATTCGCTTGACGCTGCTG	-0.0324	-0.251	-0.476	0.267	-0.305
CCGATTAACATCATAACTGACCTTGATGTTAATCGGGTCTTGATTCGCTTGACGCTGCTG	-0.342	-0.381	-0.0873	-0.329	-0.349
CCGATTAACATCATGGATCAAGTTGATGTTAATCGGGTCTTGATTCGCTTGACGCTGCTG	-0.435	0.0692	-0.881	-0.292	-0.485
CCGATTAACATCACGAAGCTTGATGATGTTAATCGGGTCTTGATTCGCTTGACGCTGCTG	-0.326	-0.447	-0.674	-0.245	-0.762
